# Whole data set: some 110,000 compounds, median “z-score” near -0.1, cut for the highest 2% near 2. This is one part of the list. Activity calls are given as the source filed them.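 Rule for the calls: active = z-score in the third read window above 3 or below -3; inactive = the rest.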
# Target: Metabotropic glutamate receptor 8 (Rattus norvegicus) (UniProt P70579)
# Experiment: mGluR8 Gi/Go-coupled signaling modulation – cell-based, rat, thallium flux, HTS, primary screen (AID 488969)
# Conditions: HEK293 rat mGluR8, GIRK (G protein-gated inwardly rectifying potassium channel) thallium flux, FluoZin2; at 10 µM; stronger effect = higher value; submaximal glutamate (EC20) added with thallium
# Sequence of UniProt P70579 (P70579 whole entry, looked up): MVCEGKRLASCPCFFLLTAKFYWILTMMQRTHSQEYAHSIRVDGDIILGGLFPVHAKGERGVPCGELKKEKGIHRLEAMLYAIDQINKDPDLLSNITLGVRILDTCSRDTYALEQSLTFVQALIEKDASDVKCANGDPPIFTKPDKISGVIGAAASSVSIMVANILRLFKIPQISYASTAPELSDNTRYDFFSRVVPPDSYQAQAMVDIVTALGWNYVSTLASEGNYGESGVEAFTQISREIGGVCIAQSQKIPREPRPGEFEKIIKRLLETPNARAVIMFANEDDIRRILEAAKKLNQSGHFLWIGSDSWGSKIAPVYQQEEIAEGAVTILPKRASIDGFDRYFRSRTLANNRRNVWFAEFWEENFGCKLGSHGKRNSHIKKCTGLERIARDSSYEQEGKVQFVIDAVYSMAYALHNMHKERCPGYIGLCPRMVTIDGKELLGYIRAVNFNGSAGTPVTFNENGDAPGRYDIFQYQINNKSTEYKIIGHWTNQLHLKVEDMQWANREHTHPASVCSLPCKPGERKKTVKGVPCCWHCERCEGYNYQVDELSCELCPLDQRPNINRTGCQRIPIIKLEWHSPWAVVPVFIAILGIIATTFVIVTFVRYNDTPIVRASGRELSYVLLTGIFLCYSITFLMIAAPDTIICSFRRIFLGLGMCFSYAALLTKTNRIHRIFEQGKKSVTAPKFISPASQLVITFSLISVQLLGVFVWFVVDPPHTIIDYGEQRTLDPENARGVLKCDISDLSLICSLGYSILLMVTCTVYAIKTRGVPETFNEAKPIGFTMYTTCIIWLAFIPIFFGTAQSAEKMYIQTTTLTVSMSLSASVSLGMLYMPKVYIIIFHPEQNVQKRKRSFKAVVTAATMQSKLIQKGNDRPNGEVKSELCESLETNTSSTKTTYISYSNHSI
row,SMILES,z-score
1,CCOC(=O)CC1C(=O)NC2CCCCC2N1C(=O)Nc1ccc(Cl)cc1 (stereo unspecified),0.146
2,CCOC(=O)c1sc2nc(SCC(=O)NCc3ccco3)n(Cc3ccccc3)c(=O)c2c1C,-0.202
3,Cc1c([N+](=O)[O-])cc(C(=O)Oc2ccc(Br)cc2C(=S)N2CCCCC2)cc1[N+](=O)[O-],active: 3.58
4,CN(C)S(=O)(=O)c1cccc(NC(=O)COC(=O)CCC(=O)c2ccc(F)cc2)c1,-0.326
5,CCCSc1nnc(Cc2cc(=O)[nH]c(=O)[nH]2)n1-c1cc(C)ccc1C,-0.222
6,COc1cc(/C=C/C(=O)OCC(=O)Nc2cccc(Oc3ccccc3)c2)ccc1O,0.137
7,O=C(N/N=C1/CC2C=CCC12)c1ccco1 (stereo unspecified),-0.0648
8,CCC(C(=O)Nc1nc(C)cs1)c1ccccc1 (stereo unspecified),-0.691
9,Cc1cccc2cc(COC(=O)c3ccccc3)c(=O)[nH]c12,-0.202
10,O=C(NC1CCCCC1)NC1CC2CCCC(C1)N2C1CCCC1 (stereo unspecified),-0.0898
11,COC(=O)NCc1ccc2c(c1)OCO2,0.119
12,CCc1ccc(C(=O)Nc2nnn(CC)n2)cc1,0.223
13,COC(=O)[C@H](CCSC)NC(=O)NCc1ccccc1F,0.587
14,COc1cc(C(=O)NCc2ccc(-c3nc4ccccc4s3)cc2)cc(OC)c1OC,0.0202
15,O=C(Nc1ccc(Cl)cc1)c1ccc(-n2cncn2)c([N+](=O)[O-])c1,-0.213
16,O=C(Nc1ccccc1)c1c(F)cccc1F,-0.432
17,CCSC1=C(C#N)C(c2ccccc2Cl)CC(=O)N1 (stereo unspecified),-1.63
18,COc1ccc(NC(=O)c2cc(S(=O)(=O)NCC3COc4ccccc4O3)ccc2F)cc1 (stereo unspecified),0.0414
19,Cn1c(=O)c2c(nc(N3CCOCC3)n2CCSc2ncccn2)n(C)c1=O,-0.14
20,OCC(Cc1ccccc1)NCc1ccccc1C(F)(F)F (stereo unspecified),0.279
21,O=C1CC(c2ccccc2F)c2cc3c(cc2N1)CCC3 (stereo unspecified),-0.312
22,COc1cc(CNCCSc2nnnn2C)cc(Br)c1OCc1ccc(F)cc1,1.66
23,CCOCCn1c(CN2CCN(c3cccc(Cl)c3)CC2)nc2c1c(=O)n(C)c(=O)n2C,-0.0773

row,SMILES,z-score
1,C=CCNC(=O)NC(=O)COC(=O)/C(C#N)=C/c1cc(C)n(CCC(C)C)c1C,-0.372
2,Cc1ccccc1C(=O)Nc1ccc(C(=O)NNC(=O)CCCOc2ccc(Cl)cc2Cl)cc1,-0.102
3,Cc1nnc(NC(=O)c2ccc3ccccc3c2)o1,0.744
4,CNC(=O)c1cc2c(=O)n3cccc(C)c3nc2n(C(C)C)c1=N,0.569
5,O=C(OC(c1ccccc1)c1nccc2ccccc12)c1cccc([N+](=O)[O-])c1 (stereo unspecified),-0.443
6,O=C(CCc1ccccc1)Nc1cc(Cl)ccc1O,-0.624
7,CCCCS(=O)(=O)CC(COc1ccccc1)OC(=O)c1ccccc1 (stereo unspecified),-0.779
8,CN(CCc1ccccn1)C1CC(=O)N(c2ccc(Cl)cc2)C1=O (stereo unspecified),-0.096
9,Cn1c(=O)c2c(nc(SCC(=O)N3CCc4ccccc43)n2Cc2ccc(F)cc2)n(C)c1=O,-0.298
10,N#Cc1cc(C#N)c(N2CCN(c3cccc(Cl)n3)CC2)nc1N,-0.256
11,COc1ccc(C(=O)OCCN2C(=O)c3ccccc3C2=O)cc1,0.369
12,NC(=O)CNC(=O)[C@@H]1CC2(CC(c3ccc(Cl)cc3)=NO2)CN1C(=O)c1ccc(Br)cc1 (stereo partly specified),-0.0418
13,O=C(c1ccco1)N1CCN(c2ncnc3scc(-c4ccccc4)c23)CC1,-0.262
14,COc1cc(CNCCO)cc(Br)c1OCc1cccs1,0.766
15,CCCCCCCCCCCCCCCC[n+]1ccc(C(N)=O)cc1,-0.0531
16,CC(C)NC(=O)CSc1nc(-c2cccs2)cc(-c2ccccc2)c1C#N,-0.365
17,O=c1oc(-c2ccco2)nc2sc3c(c12)CCCC3,0.57
18,CCOC(=O)C1=C(C)NC(C)=C(C(=O)OCC)C1/C=C/c1ccccc1OC,-0.187
19,CC(C)(C)c1ccc(OCC(=O)OCCNC(=O)c2cccnc2)cc1,-0.171
20,O=C(Nc1ccc(N2CCOCC2)c(F)c1)c1ccncc1,-0.174
21,Cc1ccc(C(=O)N[C@H](C(=O)OCC(=O)c2ccc[nH]2)C(C)C)cc1,0.173
22,O=C(c1cccc(S(=O)(=O)N2CCCCC2)c1)N1CCN(S(=O)(=O)c2ccc(F)cc2)CC1,0.0439
23,Cc1ccc(C(=O)Nc2cnc3ccccc3c2)cc1,-0.176

row,SMILES,z-score
1,CC1(C)Cc2c(C#N)c(N3CCN(C(=O)c4ccccc4Cl)CC3)nc(-c3ccco3)c2CS1,-0.77
2,CCOC(=O)N1CCN(C(=O)CSc2nnc(-c3c[nH]c4ccccc34)n2CCOC)CC1,-0.338
3,CS(=O)(=O)N(Cc1ccccc1)c1ccc(C(=O)N2CCN(c3cccc(Cl)c3)CC2)cc1,-0.336
4,COc1ccc(NC(=O)c2cccnc2)c(OC)c1,-0.135
5,CCOc1ccc(-c2n[nH]c(C)c2Oc2ccccc2OC)c(O)c1,-0.969
6,Cc1cc(C)cc(-c2nnc(SCC(=O)N3CCN(C(=O)c4ccco4)CC3)o2)c1,-1.82
7,C=CCSc1nc2ccccc2n1S(=O)(=O)c1ccc(C)cc1,-0.0464
8,Cc1ccc(Nc2nc(N)c([N+](=O)[O-])c(NCc3ccco3)n2)cc1C,0.169
9,Cc1cc(C(=O)CN2CCC(C)CC2)c(C)n1-c1ccccc1F,0.0395
10,CCC(=O)NC(=S)Nc1ccc(NC(=O)c2ccc(OC)cc2)cc1,-0.111
11,O=C(c1cccc(F)c1)N1CCC(N2CCCCCC2)CC1,-1.16
12,Cc1nc2cc(C(F)(F)F)ccc2n1C1CCN(CC(=O)NC(C)(C)C)CC1,-0.421
13,C=CCOC(=O)c1ccc(-n2cncn2)nc1,-0.247
14,O=C(CCCn1c(=S)[nH]c2cc3c(cc2c1=O)OCO3)NC1CC1,-0.139
15,CCOc1ccccc1OCCn1ncc2ccc(OC)c(OC)c2c1=O,-0.271
16,CCCCCCNC(=O)c1c(O)c2ccccc2[nH]c1=O,-0.245
17,C=CCn1c(=O)c(C#N)cc2c(=O)n3ccccc3nc21,-0.302
18,CCOC(=O)C(=O)Nc1ccc(S(=O)(=O)N2CCOCC2)cc1OC,-0.497
19,O=C(NC1CCS(=O)(=O)C1)C1CCCN(S(=O)(=O)c2ccc(Cl)cc2)C1 (stereo unspecified),-0.0767
20,CCCCn1cnc2c(sc3nc4c(cc32)CSC(C)(C)C4)c1=O,-0.573
21,Nc1nsnc1C(=O)NCCO,-0.056
22,O=C(Nc1ccc2c(c1)OCCO2)C1CCN(C(=O)c2ccc(F)cc2)CC1,-0.178
23,Cc1nc(NCC2CCCO2)c2oc3ccccc3c2n1 (stereo unspecified),-0.493

row,SMILES,z-score
1,COc1ccc(-c2cn3nc4c(nc3n2)CCCC4)cc1,-2.27
2,COc1ccc(NC(=O)c2ccccn2)cc1,0.00324
3,O=c1[nH]c(=O)n(Cc2ccco2)c2c1C(C(F)(F)F)(C(F)(F)F)N=C(CCc1ccccc1)N2,-0.03
4,Cc1ccc2c(c1)c1c(n2C)C(=O)CCC1,-0.768
5,Cc1cc(C(=O)Nc2c(F)cc(F)cc2Br)c(C)o1,0.311
6,Nc1ccc2nc(SCC(=O)Nc3ccc(N4CCOCC4)c(Cl)c3)sc2c1,0.205
7,CCN1CCCC1CN(Cc1cc2ccc(C)cc2[nH]c1=O)C(=S)Nc1ccc(OC)cc1OC (stereo unspecified),0.0263
8,CC(C(=O)N1CCOCC1)N1c2cccc3cccc(c23)S1(=O)=O (stereo unspecified),0.00257
9,Cc1nc2scc(-c3ccccc3)c2c(=O)n1N,-0.583
10,Cc1ccc(N(CC(=O)N/N=C/c2cccc(Br)c2)S(C)(=O)=O)cc1,-0.412
11,Cc1cc(C)cc(NC(=O)C(Nc2ccccc2)c2ccccc2)c1 (stereo unspecified),0.168
12,Cc1cnc(C(=O)Nc2nnc(C)s2)cn1,1.98
13,Fc1ccc(CSc2nc3ncccc3[nH]2)cc1,-0.857
14,COc1ccc(-c2nn(-c3ccccc3)cc2/C=N/NC(=O)c2cccc(S(=O)(=O)Nc3ccccc3OC)c2)cc1,0.102
15,Cc1cc(C)n(CC(=O)NCc2cc(-c3nn(C)c(=O)c4ccccc34)ccc2C)n1,-0.207
16,O=c1c2cc(Br)ccc2nc2n1CCCCC2,0.0247
17,O=S(=O)(Nc1ccc(Oc2ncccn2)c(Cl)c1)c1ccc(F)cc1,0.0698
18,Nc1nc(-c2ccccc2)cs1,0.0667
19,CNCCCNCc1ccc(SC)cc1,-0.34
20,COc1ccc(-c2cc(-c3cccs3)nc(OC)c2C#N)cc1OC,-0.0839
21,CCN(CC(=O)N1CCOCC1)S(=O)(=O)c1ccc(C)cc1,0.278
22,O=C(O)CSc1nc2ccccc2[nH]1,-0.128
23,C=CCn1c(O)c(CN2CCN(Cc3ccccc3)CC2)c(C)c(C#N)c1=O,-0.264

row,SMILES,z-score
1,CCOC(=O)C(CCCOc1ccc(C)cc1)C(=O)OCC,0.303
2,COc1cc(Br)cc2cc(C(=O)N3CCN(C(=O)c4ccco4)CC3)c(=O)oc12,-0.705
3,O=C(NCc1ccco1)c1ccccc1NS(=O)(=O)c1ccc2c(c1)OCCO2,-0.0568
4,O=C(c1ccncc1)N1CCN(c2ccc(F)cc2)CC1,0.171
5,Cc1cccc(C)c1NC(=S)NC(=O)c1ccccc1F,active: 7.93
6,Cc1cccc(N2CCN(S(=O)(=O)c3cnc[nH]3)CC2)c1C,-0.236
7,Cc1ccc(-n2cc(-c3ccccc3)c3c(NN4CCOCC4)ncnc32)cc1,-0.256
8,CCOc1cc(C(=O)Nc2ccc(C)cc2C)ccc1OCC(=O)N1CCCCC1,-0.105
9,COc1ccc(-c2csc(NC(=O)CSc3ccc(Br)cc3)n2)c(OC)c1,-0.107
10,COc1cc(/C=N/n2c(C)n[nH]c2=S)ccc1OCc1ccccc1,0.69
11,Cc1ccc(-n2nnnc2Sc2nc([N+](=O)[O-])nn2C)cc1,-0.273
12,Cc1ccc(-c2csc3ncnc(NCCN4CCOCC4)c23)cc1,0.256
13,CC1=C(C)C(=O)C(N2CCOCC2)=CC1=O,-0.148
14,CCCCCC(O)CCc1n[nH]c(=S)n1-c1ccccc1 (stereo unspecified),-0.378
15,COc1cccc(C(=O)Nc2cccc(C(=O)N3CCOCC3)c2)c1,0.605
16,Cc1csc(SCc2nnc(-c3ccc(Cl)cc3)o2)n1,0.286
17,O=C(Nc1cnn(Cc2c(Cl)cccc2Cl)c1)c1ccc([N+](=O)[O-])cc1,-0.128
18,COc1ccc(N2CCN(Cc3oc(CO)cc(=O)c3O)CC2)cc1,-0.152
19,Cc1cc(C)c(C(CC(=O)c2cccs2)C(C#N)C#N)c(C)c1 (stereo unspecified),-0.0198
